The supplement of paper PMC10126150
Values marked as one replicate rest on one cluster of the flow cell; about a third of the high ones do not repeat.
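Further: ATP exposure 15 min at 22 °C before imaging.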

What follows are sequences tested on ATP (assay: switch fluorescence ratio, 500 uM ATP over buffer (Cy3 cluster intensity, sum of 5 cycles each) (fold (ratio)); higher = stronger signal-on switching upon ATP binding; sequences stand for … in TCGTCGGCAGCGTCAGATGTGTATAAGAGACAGTTTTTTTTTTTTTTTTTTTTTTTTT…TC). Details: aptamer strand: ATP DNA aptamer (quencher-CACCTGGGGGAGTATTGCGGAGGAAGG + anchor), 100 nM annealed; ATP concentration: 500 uM; one replicate.
Method in brief: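 Clusters with intensities outside 100-1000 RFU were excluded. The remaining Cy3-labelled switching-strand clusters on a modified Illumina MiSeq flow-cell had been annealed to 100 nM quencher-labelled ATP aptamer and imaged in selection buffer, then after 15 min with 500 uM ATP at 22 °C, for five cycles separated by NaOH stripping and re-annealing. The fluorescence ratio, averaged per switch-domain sequence, is each cluster's summed target-cycle Cy3 intensity over its summed buffer-cycle Cy3 intensity.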
CCTAACTGGT was tested, and the switch fluorescence ratio was 1.02. With CCTAATAACC the switch fluorescence ratio was 1.03. In the case of CCTAATAATT, the switch fluorescence ratio was 1. In the case of CCTAATCCAT, the switch fluorescence ratio was 0.981. CCTACATCTT was tested, and the switch fluorescence ratio was 1.02. In the case of CCTACGGGGG, the switch fluorescence ratio was 1.01. In the case of CCTACGGGTA, the switch fluorescence ratio was 2.17. Sequence CCTACGTCCG has a switch fluorescence ratio of 1.74. Sequence CCTACTAGGC has a switch fluorescence ratio of 1.18. CCTAGAGTTA gave a switch fluorescence ratio of 1.04. CCTAGATT gave a switch fluorescence ratio of 1.02. CCTAGGCTAA was tested, and the switch fluorescence ratio was 2.16. Work on CCTAGGGT yielded a switch fluorescence ratio of 1.11. CCTAGGTGTG gave a switch fluorescence ratio of 1.37. Work on CCTAGTCATC yielded a switch fluorescence ratio of 1.19. Work on CCTAGTCTTA yielded a switch fluorescence ratio of 0.975. CCTATAAGAC was tested, and the switch fluorescence ratio was 1.69. In the case of CCTATGCCTA, the switch fluorescence ratio was 1.2. Work on CCTATTAGGT yielded a switch fluorescence ratio of 0.989. Work on CCTATTCTG yielded a switch fluorescence ratio of 0.979. Work on CCTCAACTTT yielded a switch fluorescence ratio of 1.33. CCTCAAGTGG gave a switch fluorescence ratio of 1.14. CCTCAGATCG gave a switch fluorescence ratio of 1.19. In the case of CCTCAGTCCG, the switch fluorescence ratio was 1.15. CCTCATCAAG showed a switch fluorescence ratio of 2.7. CCTCGAATTT showed a switch fluorescence ratio of 1.98. CCTCGGAAGA gave a switch fluorescence ratio of 1.81. In the case of CCTCGGAATT, the switch fluorescence ratio was 2.3. For CCTCGGCTTT, the switch fluorescence ratio was 3.09. With CCTCGGGATG the switch fluorescence ratio was 1.28. For CCTCGTTGTT, the switch fluorescence ratio was 1.04. CCTCTTTCTG was tested, and the switch fluorescence ratio was 1.02. Sequence CCTGAACGCC has a switch fluorescence ratio of 1.98. For CCTGAAGGAA, the switch fluorescence ratio was 1.04. CCTGAGCGAG showed a switch fluorescence ratio of 1.64. For CCTGAGGGCA, the switch fluorescence ratio was 1.01. With CCTGAGTGGC the switch fluorescence ratio was 1.16. In the case of CCTGATTGTT, the switch fluorescence ratio was 1. Work on CCTGCATCTT yielded a switch fluorescence ratio of 1.06. Sequence CCTGCCTATA has a switch fluorescence ratio of 2.06. In the case of CCTGGATTAT, the switch fluorescence ratio was 1.04. Work on CCTGGCAAAA yielded a switch fluorescence ratio of 3.18. CCTGGCAAGC gave a switch fluorescence ratio of 1.32. For CCTGGCCGTA, the switch fluorescence ratio was 1.03. CCTGGGCTGC was tested, and the switch fluorescence ratio was 1.67. In the case of CCTGGGGCAT, the switch fluorescence ratio was 1.61. CCTGGGTAGG gave a switch fluorescence ratio of 1.02. CCTGGTCTCT gave a switch fluorescence ratio of 0.982. With CCTGGTGCAC the switch fluorescence ratio was 1.1. For CCTGGTGCGT, the switch fluorescence ratio was 1.45. In the case of CCTGTAACGA, the switch fluorescence ratio was 1.06. With CCTGTAATAA the switch fluorescence ratio was 1.72. CCTGTCGGGC showed a switch fluorescence ratio of 1.03. For CCTGTGTGAG, the switch fluorescence ratio was 0.995. CCTTATGACC showed a switch fluorescence ratio of 1.14. In the case of CCTTATTTTT, the switch fluorescence ratio was 1.01. For CCTTCAGCG, the switch fluorescence ratio was 1.41. With CCTTCAGGCA the switch fluorescence ratio was 1.14. In the case of CCTTCGGAGG, the switch fluorescence ratio was 1.13. Work on CCTTCTGGGA yielded a switch fluorescence ratio of 1.25. CCTTCTGTA was tested, and the switch fluorescence ratio was 1.1. Sequence CCTTGAAGTA has a switch fluorescence ratio of 1. Work on CCTTGACCGC yielded a switch fluorescence ratio of 2.3. Sequence CCTTGCAGTT has a switch fluorescence ratio of 1.93. CCTTGCTAGC gave a switch fluorescence ratio of 2.5. In the case of CCTTGGCACG, the switch fluorescence ratio was 1.57. For CCTTGGTTTT, the switch fluorescence ratio was 1.01. In the case of CCTTGTTCGC, the switch fluorescence ratio was 1.19. For CCTTGTTGGG, the switch fluorescence ratio was 0.998. CCTTTAGCA showed a switch fluorescence ratio of 2.01. With CCTTTAGCG the switch fluorescence ratio was 1.11. CCTTTAGTTC showed a switch fluorescence ratio of 1.05. For CCTTTCCCGT, the switch fluorescence ratio was 1.93. For CCTTTGAGAG, the switch fluorescence ratio was 0.989. CCTTTGCGAA gave a switch fluorescence ratio of 2.86. In the case of CCTTTTAGAC, the switch fluorescence ratio was 1.14.
